Data taken from PubChem BioAssay (NCATS).
The list shows a part of the results. These are further read-outs of the screen, such as a control signal, another cell line or another target. No call is given for them. For part of these data: The list favours compounds with an active or inconclusive main result. For part of these data: Potencies come from curve fits of mixed quality, noted in brackets.

Experiments:
[1] = qHTS drug screen for cell cycle checkpoint inhibitors in PARPi-resistant BRCA-mutant ovarian cancer cell lines. (AID 1963452); settings: PEO1/OlaR viability, CellTiter-Glo luminescence, 96 h
Outline: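 PEO1, PEO4 and PEO1/OlaR ovarian cancer cells, 600 per well, exposed 96 h at 37C to a dilution series. Viability read by CellTiter-Glo luminescence, normalized to DMSO and empty wells; activity summarized as Z-AUC.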

[2] = qHTS for identification of novel therapeutic agents for treatment of microphthalmiaassociated transcription factor (MiT) renal cell carcinoma (RCC) (AID 1963991); settings: CellTiter-Glo, 48 h; for z-score: stronger effect = lower value;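 as to z-score: curves scaled with 100% = DMSO viability and 0% = empty wells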
Outline: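 UOK109/UOK124/UOK145 (TFE3 fusions, three partners); 500 cells/well; MIPE v4.0, 1912 cpds, 11 conc.; 48 h, 37 C; CellTiter-Glo, 15 min RT; lum. Norm.: DMSO 100%, empty 0%.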

[3] = qHTS assay for small molecule antagonists of peroxisome proliferator-activated receptor delta signaling (AID 588535); settings: HEK293T PPARd-UAS-bla, beta-lactamase FRET ratio, 18 h; 460 nm channel;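 also: cells co-treated with a PPAR-delta agonist as stimulator during compound exposure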
Outline: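 Cells were seeded at 4000 per well in assay medium containing 2% charcoal/dextran FBS and held 5 hrs at 37 C. Compounds were then added for 18 hrs. CCF4 substrate was applied for 2 hrs at room temperature before fluorescence reading.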

[4] = qHTS assay for small molecule antagonists of vitamin D receptor signaling (AID 588541); settings: HEK293T VDR-UAS-bla, beta-lactamase ratio, antagonist mode; measured here: W460 blue channel (cell viability)
[5] = qHTS assay for small molecule antagonists of retinoid X receptor alpha signaling (AID 588546); settings: HEK293T RXRa-UAS-bla, beta-lactamase ratio, antagonist mode; measured here: W530 green channel, cytotoxicity proxy;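 also: cells stimulated with 9-cis-retinoic acid as agonist; % is scaled to controls: 0 for no effect and ±100 for the full control effect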
Outline: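 Beta-lactamase reporter inhibition, read as CCF4 fluorescence ratio (ex 405, em 460/530 nm) after 2 h at RT. HEK293T UAS-bla cells, 2500/well, were stimulated with 9-cis-RA at 500 or 100 nM final alongside test compound for 18 h at 37 C.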

[6] = S16 Schwann cell PMP22 intronic element beta-lactamase assay (AID 624044); settings: S16 rat Schwann cells, PMP22 element beta-lactamase FRET, 24 h; measured here: 460 nm blue channel; also: nearly all actives have a fitted effect of over 15% in size
Outline: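 Rat S16 Schwann cells with beta-Lac driven by a PMP22 intronic element, compound-treated 24 h at 37 °C. LiveBLAzer FRET B/G read: 460 nm normalized to potassium clavulanate vs DMSO; 535 nm FRET as viability; concentration-effect curves classified.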

[7] = measured here: PEO1 parental viability
[8] = TFE3-RCC UOK109 viability, measured here: UOK109 Z-AUC
[9] = TFE3-RCC viability, measured here: UOK124 Z-AUC
[10] = TFE3-RCC viability, measured here: UOK124 cell viability
[11] = TFE3-RCC viability, measured here: UOK145 Z-AUC
[12] = TFE3-RCC viability, measured here: UOK145 cell viability
Tags tell the direction and shape of the fitted curve.

Q: With `CCOc1cc2c(c(F)c1OCC)C(=N)N(CC(=O)c1cc(N3CCOCC3)c(OC)c(C(C)(C)C)c1)C2` as the compound, how does the AC50 [1, 7] read?
A: 11 µM [falling, partial curve, poor fit]

Q: And the AC50 ([1]; measured here: PEO4 viability)?
A: 17.4 µM [falling, single point]

Q: What about the z-score [2, 8] of the same compound?
A: 0.705

Q: And the z-score [2, 9]?
A: -0.737

Q: What about the AC50 [2, 10] of the same compound?
A: 14.8 µM [falling, partial curve]

Q: What about the z-score [2, 11] of the same compound?
A: -0.357

Q: What about the AC50 [2, 12] of the same compound?
A: 13.2 µM [falling, partial curve]

Q: For `C[C@@H](N)c1ccc(C(=O)Nc2ccnc3[nH]ccc23)cc1`, which AC50 [1, 7] is on record?
A: 15.5 µM [falling, single point]

Q: And the AC50 ([1]; measured here: PEO4 viability)?
A: 15.5 µM [falling, single point]

Q: And the z-score [2, 8]?
A: 1.19

Q: What about the z-score [2, 9] of the same compound?
A: -1.27

Q: What about the AC50 [2, 10] of the same compound?
A: 23.5 µM [falling, single point]

Q: And the z-score [2, 11]?
A: 0.248

Q: What about the AC50 [2, 12] of the same compound?
A: 23.5 µM [falling, partial curve]

Q: Which AC50 [1, 7] does the source give for `C=C1C(=O)[C@@]23C(CC[C@@H]1[C@H]2O)[C@@]12CO[C@]3(O)[C@@H](O)[C@@H]1C(C)(C)CC[C@@H]2O` (stereo partly specified) here?
A: 24.5 µM [falling, single point]

Q: And the AC50 ([1]; measured here: PEO4 viability)?
A: 24.5 µM [falling, single point]

Q: And the z-score [2, 8]?
A: 0.26

Q: What about the z-score [2, 9] of the same compound?
A: 0.264

Q: And the AC50 [2, 10]?
A: 29.6 µM [falling, single point]

Q: And the z-score [2, 11]?
A: -1.07

Q: And the AC50 [2, 12]?
A: 14.8 µM [falling, partial curve]

Q: Which AC50 [1, 7] does the source give for `O=C1NCCc2[nH]c(-c3ccncc3)cc21` here?
A: 5.49 µM [falling, single point]

Q: What about the AC50 ([1]; measured here: PEO4 viability) of the same compound?
A: 5.49 µM [falling, single point]

Q: What about the z-score [2, 8] of the same compound?
A: -0.0168

Q: And the z-score [2, 9]?
A: 0.216

Q: And the AC50 [2, 10]?
A: 4.69 µM [falling, full curve]

Q: What about the z-score [2, 11] of the same compound?
A: 0.275

Q: And the AC50 [2, 12]?
A: 7.43 µM [falling, full curve]

Q: For `O=C1[C@H](Cc2ccc(O)cc2)N2C(=O)CCN(C(=O)NCc3ccccc3)[C@H]2CN1Cc1cccc2ccccc12`, which AC50 [1, 7] is on record?
A: 3.89 µM [falling, full curve]

Q: What about the AC50 ([1]; measured here: PEO4 viability) of the same compound?
A: 3.89 µM [falling, partial curve]

Q: What about the z-score [2, 8] of the same compound?
A: -0.137

Q: What about the z-score [2, 9] of the same compound?
A: 0.107

Q: What about the AC50 [2, 10] of the same compound?
A: 10.5 µM [falling, partial curve]

Q: What about the z-score [2, 11] of the same compound?
A: -0.478

Q: And the AC50 [2, 12]?
A: 13.2 µM [falling, partial curve]

Q: With `COc1cc(OC2CCN(C)CC2)ccc1Nc1ncc2c(n1)n(C1CCCC1)c(=O)n2C` as the compound, how does the AC50 [1, 7] read?
A: 11 µM [falling, partial curve]

Q: And the AC50 ([1]; measured here: PEO4 viability)?
A: 11 µM [falling, partial curve]

Q: What about the z-score [2, 8] of the same compound?
A: -0.526

Q: And the z-score [2, 9]?
A: -0.0753

Q: And the AC50 [2, 10]?
A: 18.7 µM [falling, partial curve]

Q: What about the z-score [2, 11] of the same compound?
A: -0.355

Q: What about the AC50 [2, 12] of the same compound?
A: 20.9 µM [falling, partial curve]

Q: For `CCNC(=O)c1cc2c(-c3cc(OCCN4CCCC4)c(Cl)cc3Cl)nc(N)nc2s1`, which AC50 [1, 7] is on record?
A: 0.952 µM [falling, full curve]

Q: And the AC50 ([1]; measured here: PEO4 viability)?
A: 3.38 µM [falling, partial curve, poor fit]

Q: What about the z-score [2, 8] of the same compound?
A: 0.071

Q: And the z-score [2, 9]?
A: -0.0238

Q: And the AC50 [2, 10]?
A: 0.105 µM [falling, full curve, poor fit]

Q: What about the z-score [2, 11] of the same compound?
A: -0.231

Q: What about the AC50 [2, 12] of the same compound?
A: 2.35 µM [falling, full curve]

Q: Which AC50 [1, 7] does the source give for `Cc1cnc(NC(=O)Nc2cc(Br)c(C)cc2OC[C@@H]2CNCCO2)cn1` here?
A: 1.95 µM [falling, full curve]

Q: And the AC50 ([1]; measured here: PEO4 viability)?
A: 1.95 µM [falling, full curve]

Q: And the z-score [2, 8]?
A: -0.275

Q: What about the z-score [2, 9] of the same compound?
A: -0.694

Q: And the AC50 [2, 10]?
A: 7.43 µM [falling, partial curve]

Q: And the z-score [2, 11]?
A: -0.415

Q: What about the AC50 [2, 12] of the same compound?
A: 2.64 µM [falling, full curve]

Q: What does the source list for `COc1ccc(C2=N[C@H](c3ccc(Cl)cc3)[C@H](c3ccc(Cl)cc3)N2C(=O)N2CCNC(=O)C2)c(OC(C)C)c1`?
A: AC50 [1, 7]: 13.8 µM [falling, single point]; AC50 ([1]; measured here: PEO4 viability): 13.8 µM [falling, single point]; z-score [2, 8]: -0.861; z-score [2, 9]: -0.142; AC50 [2, 10]: 29.6 µM [falling, single point]; z-score [2, 11]: 0.757; AC50 [2, 12]: 20.9 µM [falling, partial curve]

Q: For `NC(CO)(CO)CCc1ccc(Sc2cccc(OCc3ccccc3)c2)cc1Cl`, which AC50 [1, 7] is on record?
A: 19.5 µM [falling, partial curve]

Q: What about the AC50 ([1]; measured here: PEO4 viability) of the same compound?
A: 12.3 µM [falling, partial curve]

Q: And the z-score [2, 8]?
A: 0.378

Q: What about the z-score [2, 9] of the same compound?
A: -0.782

Q: And the AC50 [2, 10]?
A: 14.8 µM [falling, partial curve]

Q: And the z-score [2, 11]?
A: 0.185

Q: And the AC50 [2, 12]?
A: 18.7 µM [falling, partial curve]

Q: Which results are given for `CCc1nc(N)nc(N)c1-c1ccc(Cl)cc1`?
A: max response [3]: 83%; AC50 [4]: 50.1 µM [rising, single point]; max response [5]: 0.416%; AC50 [6]: 7.94 µM [falling, full curve]; AC50 [1, 7]: 15.5 µM [falling, single point]; AC50 ([1]; measured here: PEO4 viability): 3.89 µM [falling, full curve]; z-score [2, 8]: -0.143; z-score [2, 9]: -1.59; AC50 [2, 10]: 1.18 µM [falling, full curve]; z-score [2, 11]: -0.943; AC50 [2, 12]: 4.18 µM [falling, full curve]
